Assay [1] deals with sedge, umbrella (small-flower umbrella sedge, Cyperus difformis). Kind of assay: Test B flooded paddy test, sedge, umbrella. To be noted: for pest or weed control at 250 g/ha: Cyperus difformis, 336 h, read-out: Plant response rating, Sedge, Umbrella; for Plant response rating, Sedge, Umbrella: Flood, 250 g ai/ha, visual rating after 13 to 15 days, scale of 0 to 100 where 0 is no effect and 100 is complete control.

The subject of assay [2] is ducksalad (Heteranthera limosa). The assay is described as follows: Test B flooded paddy test, ducksalad. The following applies: Flood, 250 g ai/ha; visual rating after 13 to 15 days; scale of 0 to 100 where 0 is no effect and 100 is complete control.
The subject of a further assay is rice (Oryza sativa). The assay is described as follows: Test B flooded paddy test, rice. The following applies: Flood, 250 g ai/ha; visual rating after 13 to 15 days; scale of 0 to 100 where 0 is no effect and 100 is complete control.
Assay [3] has as its system barnyardgrass (Echinochloa crus-galli). The assay is described as follows: Test B flooded paddy test, barnyardgrass. The following applies: Flood, 250 g ai/ha; visual rating after 13 to 15 days; scale of 0 to 100 where 0 is no effect and 100 is complete control.

As for `Cc1cc(C)c(C2=NOC3CCOCC23)cc1NS(=O)(=O)C(F)(F)F` (stereo not shown) [Compound 120, N-[2,4-Dimethyl-5-(3a,6,7,7a-tetrahydro-4H-pyrano[3,4-d]isoxazol-3-yl)phenyl]-1,1,1-trifluoromethanesulfonamide], the pest or weed control at 250 g/ha in assay [1] turned out to be 55%.
Consider `Cc1cc(C)c(C2=NOC3COCCC23)cc1NS(=O)(=O)C(F)(F)F` (stereo not shown) [Compound 121, N-[2,4-Dimethyl-5-(3a,4,7,7a-tetrahydro-5H-pyrano[4,3-d]isoxazol-3-yl)phenyl]-1,1,1-trifluoromethanesulfonamide], for which the pest or weed control at 250 g/ha in assay [1] stood at 70%.
With `Cc1c(NS(=O)(=O)C(F)(F)F)cc(C(=O)N(C)C)c(C)c1F` [Compound 128, 3-Fluoro-N,N,2,4-tetramethyl-5-[[(trifluoromethyl)sulfonyl]amino]benzamide], in assay [1], the pest or weed control at 250 g/ha was 90%.
For the compound `Cc1cc(C)c(C2=NOC3(CCCC3)C2)cc1NS(=O)(=O)C(F)(F)F` [Compound 207, N-[2,4-Dimethyl-5-(1-oxa-2-azaspiro[4.4]non-2-en-3-yl)phenyl]-1,1,1-trifluoromethanesulfonamide], the pest or weed control at 250 g/ha in assay [1] was 98%.
On the same count and under the same terms, the same measure for `Cc1cc(C)c(C2=NO[C@@H]3CCC[C@H]23)cc1NS(=O)(=O)C(F)(F)F` [Compound 103, N-[2,4-Dimethyl-5-[(3aR,6aR)-3a,5,6,6a-tetrahydro-4H-cyclopent[d]isoxazol-3-yl]phenyl]-1,1,1-trifluoromethanesulfonamide]: 85%; for `Cc1cc(C)c(N(COC(=O)C(C)(C)C)S(=O)(=O)C(F)(F)F)cc1N1CCC2(CCCCC2)C1=O` [Compound 268, [[2,4-Dimethyl-5-(1-oxo-2-azaspiro[4.5]dec-2-yl)phenyl][(trifluoromethyl)sulfonyl]amino]methyl 2,2-dimethylpropanoate]: 70%.
For the compound `Cc1cc(C)c(C2=NOC3CCCCC23)cc1NS(=O)(=O)C(F)(F)F` (racemic) [Compound 125], the “Plant response rating, Ducksalad” value in assay [2] is reported as 30. Besides, the “Plant response rating, Rice” value in the assay with rice (Oryza sativa) is 0. Also, the “Plant response rating, Sedge, Umbrella” value in assay [1] is listed as 85. Moreover, the “Plant response rating, Barnyardgrass” value in assay [3] worked out at 0.
With `Cc1cc(C)c(N(COC(=O)C(C)(C)C)S(=O)(=O)C(F)(F)F)cc1C1=NO[C@@H]2CCC[C@H]12` [Compound 100, [[2,4-Dimethyl-5-[(3aR,6aR)-3a,5,6,6a-tetrahydro-4H-cyclopent[d]isoxazol-3-yl]phenyl][(trifluoromethyl)sulfonyl]amino]methyl 2,2-dimethylpropanoate], the pest or weed control at 250 g/ha in assay [1] worked out at 80%.
For `Cc1cc(C)c(N(S(=O)(=O)C(F)(F)F)S(=O)(=O)C(F)(F)F)cc1C(=O)N1CCSCC1` [Compound 5], the “Plant response rating, Ducksalad” value in assay [2] was found to be 0. Further, in the assay with rice (Oryza sativa), the “Plant response rating, Rice” value worked out at 0. The “Plant response rating, Sedge, Umbrella” value in assay [1] came out at 0. For the same compound, in assay [3], the “Plant response rating, Barnyardgrass” value was found to be 0.
As for `Cc1cc(C)c(C2=NOC3(CCCCC3)C2)cc1NS(=O)(=O)C(F)(F)F` [Compound 197, N-[2,4-Dimethyl-5-(1-oxa-2-azaspiro[4.5]dec-2-en-3-yl)phenyl]-1,1,1-trifluoromethanesulfonamide], the pest or weed control at 250 g/ha in assay [1] is 98%.
On the same count and under the same terms, the value for `Cc1cc(C)c(C(=O)N2CCOCC2)cc1NS(=O)(=O)C(F)(F)F` [Compound 6, N-[2,4-Dimethyl-5-(4-morpholinylcarbonyl)phenyl]-1,1,1-trifluoromethanesulfonamide] was 0%.
`Cc1cc(C)c(N(S(=O)(=O)C(F)(F)F)S(=O)(=O)C(F)(F)F)cc1N1CCC2(CCCCC2)C1=O` [Compound 267, N-[2,4-Dimethyl-5-(1-oxo-2-azaspiro[4.5]dec-2-yl)phenyl]-1,1,1-trifluoro-N-[(trifluoromethyl)sulfonyl]methanesulfonamide]: the pest or weed control at 250 g/ha in assay [1] came to 70%.
With `Cc1cc(C(=O)N2CCOC(C)(C)C2)cc(NS(=O)(=O)C(F)(F)F)c1Cl` [Compound 2], in assay [2], the “Plant response rating, Ducksalad” value was 65. In addition, the “Plant response rating, Rice” value in the assay on rice (Oryza sativa) was found to be 35. Besides, the “Plant response rating, Sedge, Umbrella” value in assay [1] is reported as 70. Also, the “Plant response rating, Barnyardgrass” value in assay [3] worked out at 0.
In the case of `Cc1cc(C)c(C2=NOC3(C2)CC(C)OC(C)C3)cc1NS(=O)(=O)C(F)(F)F` (single isomer, unassigned) [Compound 173], the “Plant response rating, Ducksalad” value in assay [2] is reported as 75. For the same compound, the “Plant response rating, Rice” value in the assay on rice (Oryza sativa) was found to be 15. Besides, the “Plant response rating, Sedge, Umbrella” value in assay [1] was found to be 80. The “Plant response rating, Barnyardgrass” value in assay [3] was determined as 80.
Regarding `Cc1cc(Cl)c(NS(=O)(=O)C(F)(F)F)cc1C(=O)N1CCC(F)(F)CC1` [Compound 229, N-[2-Chloro-5-[(4,4-difluoro-1-piperidinyl)carbonyl]-4-methylphenyl]-1,1,1-trifluoromethanesulfonamide], the pest or weed control at 250 g/ha in assay [1] is 95%.
As for `CSC1CCCN(C(=O)c2cc(NS(=O)(=O)C(F)(F)F)c(C)cc2C)C1` (stereo not shown) [Compound 3], in assay [2], the “Plant response rating, Ducksalad” value came to 80. In addition, in the assay with rice (Oryza sativa), the “Plant response rating, Rice” value worked out at 0. Moreover, in assay [1], the “Plant response rating, Sedge, Umbrella” value is 70. The “Plant response rating, Barnyardgrass” value in assay [3] came to 0.
As to `Cc1cc(C)c(C(=O)N2CCCCC2)cc1NS(=O)(=O)C(F)(F)F` [Compound 260, N-[2,4-Dimethyl-5-(1-piperidinylcarbonyl)phenyl]-1,1,1-trifluoromethanesulfonamide], the pest or weed control at 250 g/ha in assay [1] worked out at 95%.
Consider `Cc1cc(C)c(N(COC(=O)C(C)(C)C)S(=O)(=O)C(F)(F)F)cc1C1=NOC2(CCCC2)C1` [Compound 140, [[2,4-Dimethyl-5-(1-oxa-2-azaspiro[4.4]non-2-en-3-yl)phenyl][(trifluoromethyl)sulfonyl]amino]methyl 2,2-dimethylpropanoate], for which the pest or weed control at 250 g/ha in assay [1] was determined as 95%.
Turning to `Cc1cc(C)c(N2CCC3(CCCCC3)C2=O)cc1NS(=O)(=O)C(F)(F)F` [Compound 278, N-[2,4-Dimethyl-5-(1-oxo-2-azaspiro[4.5]dec-2-yl)phenyl]-1,1,1-trifluoromethanesulfonamide], in assay [1], the pest or weed control at 250 g/ha was 85%.
Regarding `Cc1cc(Cl)c(NS(=O)(=O)C(F)(F)F)cc1C(=O)N1CCCCC1` [Compound 18, N-[2-Chloro-4-methyl-5-(1-piperidinylcarbonyl)phenyl]-1,1,1-trifluoromethanesulfonamide], the pest or weed control at 250 g/ha in assay [1] amounted to 0%.
Regarding `Cc1cc(C)c(C2=NOC3(C2)CC(C)CC(C)C3)cc1NS(=O)(=O)C(F)(F)F` (single isomer, unassigned) [Compound 167], in assay [2], the “Plant response rating, Ducksalad” value stood at 0. Moreover, the “Plant response rating, Rice” value with rice (Oryza sativa) came out at 0. Moreover, in assay [1], the “Plant response rating, Sedge, Umbrella” value is given as 0. Further, the “Plant response rating, Barnyardgrass” value in assay [3] turned out to be 0.
On to `Cc1cc(C)c(C(=O)N2CCC(F)(F)CC2)cc1NS(=O)(=O)C(F)(F)F` [Compound 241, N-[5-[(4,4-Difluoro-1-piperidinyl)carbonyl]-2,4-dimethylphenyl]-1,1,1-trifluoromethanesulfonamide], for which the pest or weed control at 250 g/ha in assay [1] was determined as 98%.
Take `Cc1c(NS(=O)(=O)C(F)(F)F)cc(C(=O)N2CCOCC2)c(C)c1F` [Compound 190, 1,1,1-Trifluoro-N-[3-fluoro-2,4-dimethyl-5-(4-morpholinylcarbonyl)phenyl]methanesulfonamide]: in assay [1], the pest or weed control at 250 g/ha amounted to 80%.
For `Cc1cc(C)c(C2=NOC3(C2)CC(C)OC(C)C3)cc1NS(=O)(=O)C(F)(F)F` (single isomer, unassigned) [Compound 171], the “Plant response rating, Ducksalad” value in assay [2] stood at 30. The “Plant response rating, Rice” value with rice (Oryza sativa) was found to be 45. In addition, in assay [1], the “Plant response rating, Sedge, Umbrella” value was 60. The “Plant response rating, Barnyardgrass” value in assay [3] came out at 55.
As to `Cc1cc(C)c(C2=NOC3(C2)CC(C)CC(C)C3)cc1NS(=O)(=O)C(F)(F)F` (single isomer, unassigned) [Compound 168], in assay [2], the “Plant response rating, Ducksalad” value came to 0. Also, the “Plant response rating, Rice” value in the assay on rice (Oryza sativa) is listed as 0. Further, in assay [1], the “Plant response rating, Sedge, Umbrella” value worked out at 65. Also, in assay [3], the “Plant response rating, Barnyardgrass” value was 0.
For the compound `Cc1cc(Cl)c(NS(=O)(=O)C(F)(F)F)cc1C(=O)N1CCOC(C)C1` (stereo not shown) [Compound 1], in assay [2], the “Plant response rating, Ducksalad” value is reported as 65. The “Plant response rating, Rice” value in the assay with rice (Oryza sativa) came to 30. Further, in assay [1], the “Plant response rating, Sedge, Umbrella” value was 70. Moreover, the “Plant response rating, Barnyardgrass” value in assay [3] is 0.
For the compound `Cc1cc(Cl)c(NS(=O)(=O)C(F)(F)F)cc1C(=O)N1CCOCC1` [Compound 16, N-[2-Chloro-4-methyl-5-(4-morpholinylcarbonyl)phenyl]-1,1,1-trifluoromethanesulfonamide], the pest or weed control at 250 g/ha in assay [1] amounted to 95%.
For the compound `CC(=O)OCN(c1cc(C2=NO[C@@H]3CCC[C@H]23)c(C)cc1C)S(=O)(=O)C(F)(F)F` (relative stereo) [Compound 102], the “Plant response rating, Ducksalad” value in assay [2] worked out at 85. In the assay on rice (Oryza sativa), the “Plant response rating, Rice” value was found to be 35. Further, the “Plant response rating, Sedge, Umbrella” value in assay [1] was found to be 80. Moreover, in assay [3], the “Plant response rating, Barnyardgrass” value was determined as 90.
For the compound `Cc1ccc(C(=O)N2CCC(C)CC2)cc1NS(=O)(=O)C(F)(F)F` [Compound 7], the “Plant response rating, Ducksalad” value in assay [2] is reported as 30. Besides, the “Plant response rating, Rice” value with rice (Oryza sativa) is reported as 0. For the same compound, the “Plant response rating, Sedge, Umbrella” value in assay [1] is on record as 70. In addition, the “Plant response rating, Barnyardgrass” value in assay [3] is 0.
For the compound `Cc1cc(C)c(N(COC(=O)C(C)(C)C)S(=O)(=O)C(F)(F)F)cc1C1=NOC2(CCCCC2)C1` [Compound 159, [[2,4-Dimethyl-5-(1-oxa-2-azaspiro[4.5]dec-2-en-3-yl)phenyl][(trifluoromethyl)sulfonyl]amino]methyl 2,2-dimethylpropanoate], the pest or weed control at 250 g/ha in assay [1] came to 70%.
As to `CCc1cc(-c2cc(NS(=O)(=O)C(F)(F)F)c(C)cc2C)c(=O)n(C)n1` [Compound 34, N-[5-(6-Ethyl-2,3-dihydro-2-methyl-3-oxo-4-pyridazinyl)-2,4-dimethylphenyl]-1,1,1-trifluoromethanesulfonamide], the pest or weed control at 250 g/ha in assay [1] turned out to be 0%.

These data come from patent publication US20230278972A1, “SUBSTITUTED HALOALKYL SULFONANILIDE HERBICIDES” (FMC Corporation, priority 2020, published 2023).
